Drawing on the antibiotic and cytotoxicity screens of Wong et al. (2023), this text covers growth inhibition call for 21 compounds.

The list shows a part of the results.

In the assay the test system is S. aureus RN4220. The assay can be described thus: growth inhibition call (relative growth <= 0.2). The settings on record: 50 µM.
On to `C[C@@H]1CN([C@@H](C)CO)C(=O)CCCn2nncc2CO[C@@H]1CN(C)C(=O)Nc1ccc(C(C)(C)C)cc1`, for which the growth inhibition call is “inactive”.
Take `COc1ccc(-c2cnc3c(c2)C(=O)N([C@@H](C)CO)C[C@@H](C)[C@H](CN(C)C(=O)Cc2ccccn2)O3)cc1`: the growth inhibition call was “inactive”.
For `O=C(C[C@@H]1CC[C@@H]2[C@H](COC[C@H](O)CN2S(=O)(=O)c2ccccc2)O1)N[C@@H]1CCN(Cc2ccccc2)C1`, the growth inhibition call is “inactive”.
Turning to `CO[C@H]1CN(C)C(=O)c2ccc(NC(=O)NC(C)C)cc2OC[C@H](C)N(Cc2ccc(-c3ccccn3)cc2)C[C@@H]1C`, the growth inhibition call is “inactive”.
In the case of `COC(=O)N[C@H](C(=O)N1CCC[C@H]1c1nc(-c2ccc(-c3ccc(-c4c[nH]c([C@@H]5CCCN5C(=O)[C@@H](NC(=O)OC)C(C)C)n4)cc3)cc2)c[nH]1)C(C)C`, the growth inhibition call is “inactive”.
As to `CC[C@@H](C)NCc1ccsc1`, the growth inhibition call is “inactive”.
On to `Cc1nn(C)cc1NC(=O)C[C@H]1CC[C@@H]2[C@H](COc3ccc(NC(=O)C4CCOCC4)cc3C(=O)N2C)O1`, for which the growth inhibition call is “inactive”.
Turning to `O=C(O)[C@@H]1C[C@@H](O)CN1`, the growth inhibition call is “inactive”.
For `C[C@@H]1CN([C@H](C)CO)C(=O)Cc2cc(NC(=O)Nc3cccc4ccccc34)ccc2O[C@@H]1CN(C)S(=O)(=O)c1cccs1`, the growth inhibition call was “inactive”.
As for `CCS(=O)(=O)Nc1ccc2c(c1)C(=O)N(C)[C@@H]1CC[C@@H](CC(=O)NCCOC)O[C@H]1CO2`, the entry is “inactive”; as for `COc1ccc(CN(C)C[C@H]2OCCCC[C@H](C)Oc3ccc(NC(=O)C4CCCCC4)cc3C(=O)N([C@@H](C)CO)C[C@@H]2C)cc1`, “inactive”.
To `O=C(C[C@H]1C[C@@H]2c3cc(NC(=O)C4CCOCC4)ccc3O[C@@H]2[C@H](CO)O1)NCc1ccc(Cl)cc1` belongs “inactive”; to `COc1ccc(S(=O)(=O)N(C)C[C@H]2Oc3c(NC(=O)c4cc(C)nn4C)cccc3C(=O)N([C@@H](C)CO)C[C@@H]2C)cc1`, “inactive”; to `C[C@@H]1CN([C@@H](C)CO)C(=O)c2cc(C#Cc3ccccc3F)cnc2O[C@@H]1CN(C)C(=O)Cc1cccnc1`, “inactive”.
On to `C[C@@H]1CN([C@H](C)CO)C(=O)Cc2cc(NC(=O)Nc3cccc4ccccc34)ccc2O[C@@H]1CN(C)S(=O)(=O)c1ccc(F)cc1`, for which the growth inhibition call is “inactive”.
For `CC(C)NC(=O)Nc1ccc2c(c1)C(=O)N([C@H](C)CO)C[C@@H](C)[C@H](CN(C)S(=O)(=O)c1cn(C)cn1)O2`, the growth inhibition call was “inactive”.
As for `CCn1cc(C(=O)O)c(=O)c2cc(F)c(N3CCN(C(=S)Nc4cc(C(F)(F)F)ccc4Cl)CC3)cc21`, the growth inhibition call was “inactive”.
To `C[C@@H]1CN([C@@H](C)CO)C(=O)c2cccc(NS(C)(=O)=O)c2O[C@H]1CN(C)S(=O)(=O)c1cn(C)cn1` belongs “inactive”; to `C[C@@H]1CN([C@H](C)CO)C(=O)c2cc(C#Cc3ccccn3)cnc2O[C@H]1CN(C)C(=O)CCN1CCCCC1`, “inactive”.
In the case of `C[C@H]1CN([C@@H](C)CO)C(=O)c2cccc(NS(=O)(=O)c3cn(C)cn3)c2O[C@H]1CN(C)C(=O)Nc1ccc2c(c1)OCO2`, the growth inhibition call is “inactive”.
For the compound `Cc1noc(C)c1NC(=O)Nc1ccc2c(c1)C(=O)N([C@@H](C)CO)C[C@H](C)[C@@H](CN(C)S(=O)(=O)c1cccs1)OCCCC[C@@H](C)O2`, the growth inhibition call was “inactive”.
